Results: the supplement of paper PMC10126150
Values marked as one replicate rest on one cluster of the flow cell; about a third of the high ones do not repeat.

Tested on: ATP
Experiment: switch fluorescence ratio, 500 uM ATP over buffer (Cy3 cluster intensity, sum of 5 cycles each) (fold (ratio)); higher = stronger signal-on switching upon ATP binding; sequences stand for … in TCGTCGGCAGCGTCAGATGTGTATAAGAGACAGTTTTTTTTTTTTTTTTTTTTTTTTT…TC
Conditions: aptamer strand: ATP DNA aptamer (quencher-CACCTGGGGGAGTATTGCGGAGGAAGG + anchor), 100 nM annealed; ATP concentration: 500 uM; one replicate
Summary of the method: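 After annealing to 100 nM quencher-labelled ATP aptamer, Cy3-labelled switching-strand clusters on a modified Illumina MiSeq flow-cell were imaged in selection buffer. A second image followed after 15 min with 500 uM ATP at 22 °C, and five such buffer/ATP cycles were done, each separated by NaOH stripping and re-annealing. The fluorescence ratio, averaged per switch-domain sequence, is summed target-cycle over summed buffer-cycle Cy3 intensity per cluster, with clusters outside 100-1000 RFU excluded.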
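Further: ATP exposure 15 min at 22 °C before imaging.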

In the case of AGAACCACG, the switch fluorescence ratio is reported as 1.06.

CAGGCTTGGA was tested, and the switch fluorescence ratio was 0.959.

GACGACGGTG was tested, and the switch fluorescence ratio was 1.

Work on CTGTCTTCTT yielded a switch fluorescence ratio of 0.996.

Sequence CGAAGGTTG has a switch fluorescence ratio of 1.04.

AAAGCGTAGT gave a switch fluorescence ratio of 1.02.

Sequence GAATGCTATA has a switch fluorescence ratio of 1.08.

In the case of CCGTCGTTTG, the switch fluorescence ratio is reported as 1.03.

CACTAGGCGA was tested, and the switch fluorescence ratio was 1.

ACCTGTAGGC showed a switch fluorescence ratio of 1.15.

ATGCTAAGCG was tested, and the switch fluorescence ratio was 1.

AGTTTAGTTA showed a switch fluorescence ratio of 1.01.

With ACTATTCCTG the switch fluorescence ratio was 0.989.

With TCATTTTCCA the switch fluorescence ratio was 1.05.

In the case of AAGTACAAAA, the switch fluorescence ratio is reported as 1.14.

TACTCGCCCC showed a switch fluorescence ratio of 1.44.

Work on ACAGTACTTA yielded a switch fluorescence ratio of 1.31.

GGCTGGGTCT showed a switch fluorescence ratio of 0.995.

AGCGTGTGCC showed a switch fluorescence ratio of 0.971.

CCATCGTTCT showed a switch fluorescence ratio of 0.985.

Work on TCGTGAGAAG yielded a switch fluorescence ratio of 1.04.

ATAGGTGTCC gave a switch fluorescence ratio of 1.02.

In the case of TACAGTATGT, the switch fluorescence ratio is reported as 1.

In the case of GCATAGTGAC, the switch fluorescence ratio is reported as 1.05.

Sequence AAGAGCATGA has a switch fluorescence ratio of 0.948.

Sequence CCACATACGC has a switch fluorescence ratio of 1.63.

For TACCCTGTGA, the switch fluorescence ratio was 1.

Sequence GATGCAGGGG has a switch fluorescence ratio of 2.3.

Sequence GATCGTCCGC has a switch fluorescence ratio of 1.85.

GGTGCGCTCG gave a switch fluorescence ratio of 0.965.

CTCCTTGTCT gave a switch fluorescence ratio of 1.08.

With TTCTATTCTC the switch fluorescence ratio was 0.97.

In the case of CAACACTATT, the switch fluorescence ratio is reported as 1.

GAGCTTAATC was tested, and the switch fluorescence ratio was 1.01.

GTTGGTCTAA gave a switch fluorescence ratio of 1.04.

For TAATGGAAAG, the switch fluorescence ratio was 1.07.

In the case of AGTTAGGATG, the switch fluorescence ratio is reported as 0.978.

CGATTCACCC was tested, and the switch fluorescence ratio was 1.02.

In the case of CGTACTACTG, the switch fluorescence ratio is reported as 1.03.

With TTATGATGA the switch fluorescence ratio was 0.969.

CGGGAGAGCA gave a switch fluorescence ratio of 1.

In the case of TGAGGCGTAT, the switch fluorescence ratio is reported as 0.983.

TGCTATCGGT showed a switch fluorescence ratio of 0.986.

GGCACAGTCC gave a switch fluorescence ratio of 1.02.

ACTTATACTG was tested, and the switch fluorescence ratio was 1.12.

Sequence TAGTTGGGTA has a switch fluorescence ratio of 0.937.

With TCCCCGGTTA the switch fluorescence ratio was 1.02.

For TGCGCAGGAT, the switch fluorescence ratio was 1.06.

In the case of TAATAGGTAG, the switch fluorescence ratio is reported as 0.967.

TGTGGAACGG gave a switch fluorescence ratio of 1.02.

In the case of CGAAGTAACA, the switch fluorescence ratio is reported as 1.05.

For TCGCCAGCGG, the switch fluorescence ratio was 1.03.

For TGGGAGAACA, the switch fluorescence ratio was 0.991.

With GTCACAGTGT the switch fluorescence ratio was 1.01.

TTACGGTTCC gave a switch fluorescence ratio of 1.06.

AAAAGCGTTT gave a switch fluorescence ratio of 1.06.

Work on CTTCGGAGCT yielded a switch fluorescence ratio of 1.89.

Sequence TCCTAGCTGG has a switch fluorescence ratio of 0.964.

Work on GCCCGAGGGG yielded a switch fluorescence ratio of 0.991.

With TTTTATAGGC the switch fluorescence ratio was 1.04.

For CTAATCACGG, the switch fluorescence ratio was 1.02.

GGGTCCTGTA was tested, and the switch fluorescence ratio was 1.08.

In the case of CGGCGGCGTC, the switch fluorescence ratio is reported as 0.982.

CATCTCAAGC showed a switch fluorescence ratio of 1.38.

Sequence TCTCACATCA has a switch fluorescence ratio of 1.08.

In the case of ACCCGGGGGA, the switch fluorescence ratio is reported as 0.991.

AAGCTAGATA showed a switch fluorescence ratio of 1.03.

For TAGGGGGATA, the switch fluorescence ratio was 1.03.

For GAGTTATTAG, the switch fluorescence ratio was 0.988.

For GCACACGCAG, the switch fluorescence ratio was 0.974.

For CTTAGCCGGC, the switch fluorescence ratio was 1.06.

For GCTAAGTTTT, the switch fluorescence ratio was 0.964.

Work on ATTGAGACAG yielded a switch fluorescence ratio of 0.972.

CGCTCTGGCA gave a switch fluorescence ratio of 1.02.

ATGCAAAGG showed a switch fluorescence ratio of 0.982.

ATTAGAGAAT showed a switch fluorescence ratio of 0.975.

For GTGTAGAGTA, the switch fluorescence ratio was 1.01.

Sequence ATAGAGGTA has a switch fluorescence ratio of 1.

In the case of ATATAAACGT, the switch fluorescence ratio is reported as 1.06.

CACTGGAGGA was tested, and the switch fluorescence ratio was 1.

In the case of TCTAGGCTAT, the switch fluorescence ratio is reported as 1.

Work on CTGCTTGATT yielded a switch fluorescence ratio of 1.03.

For GCTAAAAGTG, the switch fluorescence ratio was 1.03.

CGAAAGTT gave a switch fluorescence ratio of 0.933.

For TATCAGGTCT, the switch fluorescence ratio was 1.02.

TTTCGAGTCT gave a switch fluorescence ratio of 0.974.

With CCGTTACGTC the switch fluorescence ratio was 1.06.

Work on TACAGGAGCG yielded a switch fluorescence ratio of 0.976.

AATCGTGTGT showed a switch fluorescence ratio of 0.922.

Work on GTATTAGAGG yielded a switch fluorescence ratio of 1.03.

CCTTGAGGGT was tested, and the switch fluorescence ratio was 0.929.

For TTCGTGTGTG, the switch fluorescence ratio was 1.01.

In the case of TGTTAGGAGG, the switch fluorescence ratio is reported as 1.04.

With TGCATTTATC the switch fluorescence ratio was 1.08.

AATGAGCCT was tested, and the switch fluorescence ratio was 1.12.

CGTCTGTGTA showed a switch fluorescence ratio of 1.06.

Sequence AGTAAGCGCA has a switch fluorescence ratio of 0.998.

TTCCTAGCCC was tested, and the switch fluorescence ratio was 1.31.

Work on GCAGAGGCAT yielded a switch fluorescence ratio of 1.01.

Work on GATGGTACGA yielded a switch fluorescence ratio of 1.02.

In the case of AGGCCACCT, the switch fluorescence ratio is reported as 1.02.

GGTACTGAAA was tested, and the switch fluorescence ratio was 1.16.

In the case of TTGTGGGGAT, the switch fluorescence ratio is reported as 0.982.

For CGCGTTAAGG, the switch fluorescence ratio was 1.04.

Work on GCAGACATCC yielded a switch fluorescence ratio of 1.08.

For CAGGTGAGCT, the switch fluorescence ratio was 1.43.

ACCGCTTTCT gave a switch fluorescence ratio of 1.23.

For AGGGGCCCC, the switch fluorescence ratio was 1.02.

With ATGTCTTCCT the switch fluorescence ratio was 1.19.

With CGCCCTTGGT the switch fluorescence ratio was 1.14.

Sequence TGACAATAAG has a switch fluorescence ratio of 0.996.

CCTCTGTAGA showed a switch fluorescence ratio of 2.26.

Sequence TTCAGGTTG has a switch fluorescence ratio of 1.04.

With GGAATGATGT the switch fluorescence ratio was 0.988.

AAAATCTTGG gave a switch fluorescence ratio of 1.01.

CTTCCCCCCT gave a switch fluorescence ratio of 1.34.

TTTCAAACGA showed a switch fluorescence ratio of 1.07.

Sequence GCACGTACGG has a switch fluorescence ratio of 1.53.

With CACCCTTCGA the switch fluorescence ratio was 1.07.

CTTGCTGGAG showed a switch fluorescence ratio of 1.06.

For GGGGGCACCG, the switch fluorescence ratio was 0.992.

With AGAGTTAAAT the switch fluorescence ratio was 1.01.

TAGGCACTTG was tested, and the switch fluorescence ratio was 1.04.

Work on TTTCTTCTCG yielded a switch fluorescence ratio of 1.

TCCGGCGGCT was tested, and the switch fluorescence ratio was 1.03.

Sequence GGATCTCTTT has a switch fluorescence ratio of 1.04.

With CAGGTTAAA the switch fluorescence ratio was 0.957.

Sequence AGTCCGTGCG has a switch fluorescence ratio of 1.03.

CTTATCACGA was tested, and the switch fluorescence ratio was 1.02.

Sequence CCTGAGCGGC has a switch fluorescence ratio of 1.06.

TTCTTTGCCA showed a switch fluorescence ratio of 1.

AAGCGCTATT gave a switch fluorescence ratio of 0.966.

Sequence AATTTAGTCA has a switch fluorescence ratio of 1.03.

Work on GGTACCGCAC yielded a switch fluorescence ratio of 1.84.

Sequence TCTTGGTGTT has a switch fluorescence ratio of 0.967.

For CTTATATCTC, the switch fluorescence ratio was 1.03.

Work on GTTAAGACAG yielded a switch fluorescence ratio of 0.984.

Work on GCGGTCAGGT yielded a switch fluorescence ratio of 0.963.

Work on TCCAAGCAAA yielded a switch fluorescence ratio of 0.981.

Sequence TAGCGTTGGG has a switch fluorescence ratio of 0.991.

In the case of ATTGTGGAAG, the switch fluorescence ratio is reported as 0.98.

With CCTAATCGTC the switch fluorescence ratio was 1.06.

Sequence TGGATTTTGT has a switch fluorescence ratio of 0.994.

GAGGGATACC gave a switch fluorescence ratio of 1.02.

Work on GATGAAGTGA yielded a switch fluorescence ratio of 1.

Work on GCACTTGGAA yielded a switch fluorescence ratio of 1.01.

With CTCGTTCGGT the switch fluorescence ratio was 0.974.

With CGGCAATCGG the switch fluorescence ratio was 1.81.

TTTCGCGCTG gave a switch fluorescence ratio of 0.958.

GGACGAGGGA was tested, and the switch fluorescence ratio was 0.965.

With ACTAATTCGG the switch fluorescence ratio was 1.01.

Sequence TCCGCGAGCT has a switch fluorescence ratio of 2.52.

Work on GCCTTATCGC yielded a switch fluorescence ratio of 1.05.

CTGTTAAGGA showed a switch fluorescence ratio of 1.02.

ATGATCGGCC showed a switch fluorescence ratio of 0.965.

In the case of CGTACTATGG, the switch fluorescence ratio is reported as 1.12.

Work on AGAGGGTTCC yielded a switch fluorescence ratio of 1.13.

For AGAGATCGTC, the switch fluorescence ratio was 0.972.

In the case of AGATGTGGAC, the switch fluorescence ratio is reported as 0.973.

AGTCTGAATG showed a switch fluorescence ratio of 0.956.

Work on AGGGGGTTG yielded a switch fluorescence ratio of 0.995.

With CGCGACGTTC the switch fluorescence ratio was 1.11.

In the case of CGGCGTGGGA, the switch fluorescence ratio is reported as 1.03.

ACTTAGGTAT was tested, and the switch fluorescence ratio was 1.05.

For TTCGATCGGG, the switch fluorescence ratio was 1.01.

Sequence TACATGATGA has a switch fluorescence ratio of 1.05.

For CGTTCCTTGA, the switch fluorescence ratio was 1.01.

Work on TATACCTCGA yielded a switch fluorescence ratio of 1.

For GAAAGTATCC, the switch fluorescence ratio was 1.11.

For ATGCAGGTCG, the switch fluorescence ratio was 0.975.

TTTGGCTGCT showed a switch fluorescence ratio of 0.966.

With ATCAATCATA the switch fluorescence ratio was 1.

TGTTAAGAT showed a switch fluorescence ratio of 0.996.

Sequence GCGCAGGGTT has a switch fluorescence ratio of 1.02.

GACTCTGTAA showed a switch fluorescence ratio of 3.16.

In the case of AAATTACACT, the switch fluorescence ratio is reported as 1.08.

For GGAATTCA, the switch fluorescence ratio was 0.997.

For AAGTTGGAC, the switch fluorescence ratio was 1.02.

Work on ACAGGCACTT yielded a switch fluorescence ratio of 1.11.

In the case of GGTTAAGCG, the switch fluorescence ratio is reported as 0.99.

For AGATGAGGAG, the switch fluorescence ratio was 0.993.

With TGAGGTCCGG the switch fluorescence ratio was 0.956.

With GCTAATTGAC the switch fluorescence ratio was 1.04.

With ATACAATCTC the switch fluorescence ratio was 1.14.

CTTCGCTAGT gave a switch fluorescence ratio of 1.78.

CGGAAACCCC gave a switch fluorescence ratio of 1.4.

AGCCCCCTTT showed a switch fluorescence ratio of 1.07.

Work on GTTTTAGCCC yielded a switch fluorescence ratio of 0.991.

With GTGCTCAAGC the switch fluorescence ratio was 1.01.

Sequence TGAAGGCGCT has a switch fluorescence ratio of 1.08.

AAAATAGGTG gave a switch fluorescence ratio of 1.06.

Work on TAAATCCGCA yielded a switch fluorescence ratio of 1.61.

Work on AGACCAATTG yielded a switch fluorescence ratio of 1.01.

TAGGTCCTGT gave a switch fluorescence ratio of 1.

GCGGTCAACC gave a switch fluorescence ratio of 0.989.

Sequence ATCTGACTTA has a switch fluorescence ratio of 1.05.

In the case of GCGGTGGAAT, the switch fluorescence ratio is reported as 0.986.

ACTGTGTAC was tested, and the switch fluorescence ratio was 1.06.

For CGGGAGTGAG, the switch fluorescence ratio was 1.

AAGGTTGTGA gave a switch fluorescence ratio of 0.935.
